Laboratory results published in EPA's CvTdb concentration-time database.
Further values from the same series stand in other lists.

Key:
Assay in all cases: concentration in plasma after dosing
Rat [1] = conditions: dosed: 2-Hydroxy-4-methoxybenzophenone, 250 mg/kg, oral, Female, F344
Rat [2] = conditions: dosed: 2-Hydroxy-4-methoxybenzophenone, 100 mg/kg, oral, Female, F344
Mouse [3] = conditions: 1 h; dosed: 2-Hydroxy-4-methoxybenzophenone; 250 mg/kg; oral; Male; B6C3F1
Rat [4] = conditions: 2 h; dosed: 2-Hydroxy-4-methoxybenzophenone; 250 mg/kg; oral; Female; F344
Mouse [5] = conditions: 5 h; dosed: 2-Hydroxy-4-methoxybenzophenone; 250 mg/kg; oral; Male; B6C3F1
Rat [6] = conditions: 0.5 h; dosed: 2-Hydroxy-4-methoxybenzophenone; 8 mg/kg; iv; Female; F344
Mouse [7] = conditions: 12 h; dosed: 2-Hydroxy-4-methoxybenzophenone; 50 mg/kg; iv; Female; B6C3F1
Mouse [8] = conditions: 16 h; dosed: 2-Hydroxy-4-methoxybenzophenone; 500 mg/kg; oral; Male; B6C3F1
Mouse [9] = conditions: 4 h; dosed: 2-Hydroxy-4-methoxybenzophenone; 500 mg/kg; oral; Female; B6C3F1
Mouse [10] = conditions: 8 h; dosed: 2-Hydroxy-4-methoxybenzophenone; 500 mg/kg; oral; Male; B6C3F1
Mouse [11] = conditions: 0.5 h; dosed: 2-Hydroxy-4-methoxybenzophenone; 250 mg/kg; oral; Male; B6C3F1
Rat [12] = conditions: dosed: 2-Hydroxy-4-methoxybenzophenone, 500 mg/kg, oral, Female, F344
Rat [13] = conditions: dosed: 2-Hydroxy-4-methoxybenzophenone, 100 mg/kg, oral, Male, F344
Mouse [14] = conditions: 1 h; dosed: 2-Hydroxy-4-methoxybenzophenone; 250 mg/kg; oral; Female; B6C3F1
Rat [15] = conditions: dosed: 2-Hydroxy-4-methoxybenzophenone, 500 mg/kg, oral, Female, F344; remark: listed apart in the source
Mouse [16] = conditions: 1.5 h; dosed: 2-Hydroxy-4-methoxybenzophenone; 250 mg/kg; oral; Female; B6C3F1
Rat [17] = conditions: dosed: 2-Hydroxy-4-methoxybenzophenone, 500 mg/kg, oral, Female, F344; remark: listed apart in the source
Rat [18] = conditions: dosed: 2-Hydroxy-4-methoxybenzophenone, 250 mg/kg, oral, Male, F344
Rat [19] = conditions: dosed: 2-Hydroxy-4-methoxybenzophenone, 500 mg/kg, oral, Male, F344
Rat [20] = conditions: 2.5 min; dosed: 2-Hydroxy-4-methoxybenzophenone; 100 mg/kg; oral; Male; F344
Mouse [21] = conditions: 1.5 h; dosed: 2-Hydroxy-4-methoxybenzophenone; 250 mg/kg; oral; Male; B6C3F1
Mouse [22] = conditions: 5 min; dosed: 2-Hydroxy-4-methoxybenzophenone; 50 mg/kg; iv; Male; B6C3F1
Mouse [23] = conditions: 16 h; dosed: 2-Hydroxy-4-methoxybenzophenone; 50 mg/kg; iv; Male; B6C3F1
Mouse [24] = conditions: 5 min; dosed: 2-Hydroxy-4-methoxybenzophenone; 500 mg/kg; oral; Female; B6C3F1
Rat [25] = conditions: dosed: 2-Hydroxy-4-methoxybenzophenone, 8 mg/kg, iv, Male, F344
Rat [26] = conditions: dosed: 2-Hydroxy-4-methoxybenzophenone, 100 mg/kg, oral, Female, F344; remark: listed apart in the source
Mouse [27] = conditions: 8 h; dosed: 2-Hydroxy-4-methoxybenzophenone; 50 mg/kg; iv; Female; B6C3F1
Rat [28] = conditions: dosed: Perfluorohexanoic Acid, 160 mg/kg, oral, Female, Harlan Sprague Dawley
Rat [29] = conditions: 0.5 h; dosed: Perfluorohexanoic Acid; 40 mg/kg; Female; Harlan Sprague Dawley
Rat [30] = conditions: dosed: Perfluorohexanoic Acid, 40 mg/kg, Male, F344
Rat [31] = conditions: 1.5 h; dosed: Perfluorohexanoic Acid; 40 mg/kg; Male; F344
Rat [32] = conditions: dosed: Perfluorohexanoic Acid, 40 mg/kg, Male, F344; remark: listed apart in the source
Rat [33] = conditions: 3 h; dosed: Perfluorohexanoic Acid; 80 mg/kg; oral; Female; Harlan Sprague Dawley

O=C(c1ccccc1)c1ccc(O)cc1O [2,4-Dihydroxybenzophenone]
concentration in plasma [ng/mL]
Conditions | 1 h | 1.5 h | 6 h | 8 h
Rat [1] | 349 | – | 120 | –
Rat [2] | – | 140 | – | 75.5

Conditions | concentration in plasma [ng/mL]
Mouse [3] | 465
Mouse [5] | 163
Mouse [7] | 44.1
Mouse [8] | 131
Mouse [9] | 769
Mouse [10] | 97.7
Mouse [11] | 1330
Rat [4] | 230
Rat [6] | 50.4

COc1ccc(C(=O)c2ccccc2)c(O)c1 [2-Hydroxy-4-methoxybenzophenone]
Conditions | concentration in plasma [ng/mL]
Rat [12], 0.5 h | 380
Rat [12], 12 h | 20.2
Rat [13], 0.5 h | 182
Rat [13], 1 h | 227
Rat [13], 1.5 h | 67.1
Rat [13], 2 h | 58.3
Rat [13], 5 h | 25.1
Rat [13], 5 min | 15.4
Rat [13], 6 h | 9.43
Rat [13], 8 h | 8.95
Rat [15], 1 h | 3600
Rat [15], 8 h | 113
Rat [17], 2 h | 1290
Rat [17], 5 min | 50
Rat [18], 0.5 h | 216
Rat [18], 10 h | 12.7
Rat [19], 2 h | 804
Rat [19], 5 min | 24.7
Rat [25], 4 h | 35.8
Rat [25], 5 min | 8920
Rat [26], 2 h | 16.6
Rat [26], 5 min | 12.7

Conditions | concentration in plasma [ng/mL]
Mouse [14] | 105
Mouse [16] | 67.1
Mouse [21] | 113
Mouse [22] | 28200
Mouse [23] | 15.9
Mouse [24] | 738
Mouse [27] | 27.6
Rat [20] | 31.4

O=C(O)C(F)(F)C(F)(F)C(F)(F)C(F)(F)C(F)(F)F [Perfluorohexanoic Acid]
Conditions | concentration in plasma [ng/mL]
Rat [28], 1 h | 155000
Rat [28], 24 h | 41.9
Rat [30], 0.25 h | 176000
Rat [30], 6 h | 1190
Rat [32], 0.75 h | 98300
Rat [32], 24 h | 305

Conditions | concentration in plasma [ng/mL]
Rat [29] | 64900
Rat [31] | 3480
Rat [33] | 23400
